From PubChem BioAssay AID1347073 (National Center for Advancing Translational Sciences (NCATS), 2019)
The campaign covered roughly 45,000 compounds. About 200 (0.44%) were called active. Not shown: some 7% with an inconclusive outcome. Calls come from the whole dose curve; as a rule, active = well fitted activation curve with a large enough effect; inconclusive = small, poorly fitted or top-dose-only effect; inactive = no such curve, though single readings can be large or run the other way. The list shows a part of the results.

Assay: qHTS of TDP-43 Inhibitors: NCGC Sytravon Library Screen; note: 0% is about no effect; nearly all actives have a fitted effect of over 55% in size
Settings: yeast TDP-43 toxicity rescue, BacTiter-Glo growth, 24 h; series mostly up to 46.1 µM; growth rescue (activation): at the top concentration
Procedure, shortened: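 TDP-43-expressing yeast, pregrown in raffinose, seeded at OD600 0.02 in galactose medium with compound for 24 hr at 30 deg C. Growth read by BacTiter-Glo luminescence, so rescue of toxicity appears as activation.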

| Structure (SMILES) | growth rescue (activation) |
| --- | --- |
| Cc1noc(C)c1C(=O)NCc1ccccc1Br | inactive: -0.772% |
| CN(CCC#N)C(=O)COC(=O)/C=C/c1ccc2c(c1)OCO2 | inactive: 0.288% |
| COc1ccc(N(C(=O)Cn2nnc3ccccc32)C(C(=O)NCc2ccco2)c2ccncc2)cc1 (configuration not stated) | inactive: 12.3% |
| O=C(CNC(=O)c1cc(Cl)cc([N+](=O)[O-])c1)OCC(=O)N1CCCCC1 | inactive: 24.2% |
| COc1cccc(CC(=O)Nc2ncc(C)s2)c1 | inactive: 10.9% |
| CC(O)(c1cccc(F)c1)c1nc(-c2cccc(F)c2)cs1 (configuration not stated) | inactive: -57.8% |
| Cc1cccc2nc(COc3ccc4ccccc4c3Br)cn12 | inactive: 1.45% |
| C=CCN(c1ccc(C(=O)Nc2ccc(C)cc2)cc1)S(C)(=O)=O | inactive: 4.2% |
| Cc1cc(N2CCN(Cc3nc(-c4ccc(Cl)cc4)oc3C)CC2)cc(C)n1 | inactive: -15.2% |
| Cc1cccc(NC(=O)C2CCN(c3nnc(-n4c(C)ccc4C)s3)CC2)c1C | inactive: 1.22% |
| COc1ccc(NC(=O)CCNS(=O)(=O)c2cccc3nsnc23)cc1 | inactive: -2.36% |
| CC(C)Nc1nc(NCCOc2ccccc2Cl)c2sccc2n1 | inactive: 11.4% |
| COc1cccc2c1CCc1c-2nc2ccccc2c1C(=O)O | inactive: -2.54% |
| C=CCOc1ccc(CN(C)CC(=O)Nc2ccc3c(c2)CCC3)cc1 | inactive: 8.61% |
| COc1ccc(CNC(=O)/C(C#N)=C2\N=C(NC(=O)c3cccs3)c3ccccc32)cc1 | inactive: 15.3% |
| Cc1ccc(N2CC(C(=O)N3CCC(C(=O)Nc4nnc(C(C)(C)C)s4)CC3)CC2=O)cc1 (configuration not stated) | inactive: 10.5% |
| CC[N+](C)(CC)CC(=O)OCC1C(C)C=C(C)CC1C (configuration not stated) | inactive: 1.26% |
| Cn1cc(CNC(=O)CC2C(=O)NCCN2CC(C)(C)C)cn1 (configuration not stated) | inactive: 6.09% |
| COCCCn1c(=O)/c(=C\c2ccccc2OC(C)C)s/c1=C(/C#N)C(=O)Nc1ccc(C(=O)O)cc1 | inactive: -4.17% |
| Cc1nnc(SC(C(=O)c2ccccc2)c2ccccc2)[nH]c1=O (configuration not stated) | inactive: 35.4% |
| CC1CCc2c(sc3[nH]c(=S)n(C)c(=O)c23)C1 (configuration not stated) | inactive: 15.9% |
| COc1ccccc1C(=O)Nc1ccccc1N1CCCCC1 | inactive: 13.3% |

| Structure (SMILES) | growth rescue (activation) |
| --- | --- |
| OCCN1CCN(c2ncnc3c2ncn3[C@H]2CN(Cc3ccc(Cl)cc3)C[C@@H](CO)O2)CC1 | inactive: 16.7% |
| CCOC(=O)CN1C(=O)CSc2ccc(S(=O)(=O)N3CCCC3)cc21 | inactive: 14.4% |
| O=S(=O)(c1ccc(Cl)nc1)N1CCCCC1 | inactive: 1.38% |
| CC(NC(=O)c1ccc(Br)cc1)C(=O)NC1=NCCS1 (configuration not stated) | inactive: -3.86% |
| COCC(=O)N(Cc1cc2ccc(C)c(C)c2n2nnnc12)C1CCCC1 | inactive: 6.38% |
| CSc1cccc(NCc2ccc([N+](=O)[O-])cc2)c1 | inactive: 2.38% |
| CCOC(=O)c1cc(OC)c2cccc(CN3CCCC(C)(C(=O)NCCOC)C3)c2c1 (configuration not stated) | inactive: 5.57% |
| Cc1ccc(NC(=O)COc2cccc(-n3cnnn3)c2)cc1[N+](=O)[O-] | inactive: 10% |
| CN(C)C(CNc1ncnc2sccc12)c1ccccc1 (configuration not stated) | inactive: -4.35% |
| Cc1nc2ccccc2nc(C)c1=NOCc1ccccc1Cl | inactive: -22% |
| Cc1cccc(NC(=O)Nc2nnc([C@H]3C[C@H](O)[C@@H](CO)O3)s2)c1 | inactive: 4.76% |
| COc1ccccc1NC(=O)N1CCC(C(=O)c2ccc(Cl)cc2)CC1 | inactive: 22.4% |
| OC[C@@H]1CN(Cc2ccc(F)cc2)C[C@H](n2cnc3c(NCc4ccncc4)ncnc32)O1 | inactive: -3.3% |
| CN(C)/C=N/c1sc2c(c1C#N)CCCC2 | inactive: 14.1% |
| O=c1cnnc(N/N=C/C2CC=CCC2)[nH]1 (configuration not stated) | inactive: -0.11% |
| COc1ccc(Nc2nc(NCCCN3CCOCC3)nc(N)c2[N+](=O)[O-])cc1 | inactive: 3.7% |
| CCOc1ccc(Nc2nc(N)c3ccccc3n2)cc1 | inactive: -80.4% |
| O=C(COC(=O)c1cccnc1Cl)Nc1cccc(S(=O)(=O)N2CCCCC2)c1 | inactive: 14.8% |
| CC(=O)N1CCCN(Cc2cn(-c3cc(C)ccc3C)nc2-c2ccccc2)CC1 | inactive: -0.093% |
| COC(=O)c1cc(Br)c(=O)n(CC(C)C)c1 | inactive: -2.05% |
| CCOC(=O)CNc1cccc(C(F)(F)F)c1 | inactive: 12.3% |
| CSc1c(CC(=O)Nc2ccc(F)cc2)n(Cc2ccccc2)c2ccccc12 | inactive: 11.3% |

| Structure (SMILES) | growth rescue (activation) |
| --- | --- |
| COc1ccc(CCN2C(=O)CC(Cc3cccc(C)c3)C2=O)cc1OC (configuration not stated) | inactive: 12.6% |
| Cc1cc(/C=N/NC(N)=S)c(O)c(/C=N/NC(N)=S)c1 | inactive: 5.35% |
| CCN(CC)S(=O)(=O)c1ccc(NS(=O)(=O)CC23CCC(CC2=O)C3(C)C)cc1 (configuration not stated) | inactive: 3.61% |
| CCc1nnc(NC(=O)c2ccc(COc3ccccc3Cl)o2)s1 | inactive: 14.1% |
| CC(C)(C)c1ccccc1NC(=O)Cn1c(=O)cnc2ccccc21 | inactive: 2.49% |
| COc1ccccc1-n1nnnc1SCC(=O)NCC1(N2CCCCC2)CCCCC1 | inactive: -6.73% |
| CN=C1SC(CC(=O)NCCc2ccc(OC)c(OC)c2)C(=O)N1C (configuration not stated) | inactive: 9.41% |
| CC1=NN(c2ccc(Cl)c(C(=O)O)c2)C(=O)/C1=C/c1ccc(-c2ccccc2[N+](=O)[O-])o1 | inactive: -8.17% |
| O=C(CNC(=O)COc1ccccc1)NCc1ccccc1F | inactive: -4.64% |
| CC(N=C1CC(C)(C)CC(=O)/C1=C(/O)CCCN1C(=O)c2ccccc2C1=O)C(=O)O (configuration not stated) | inactive: 9.48% |
| COCCCN(C(=S)Nc1c(C)cc(C)cc1C)C(C)c1ccccn1 (configuration not stated) | inactive: -2.52% |
| OC[C@@H]1CN(Cc2ccccc2)C[C@H](n2cnc3c(N4CCN(c5ccccc5)CC4)ncnc32)O1 | inactive: 6.92% |
| O=C(CN1CCN(c2ccc(Cl)cc2)CC1)NCc1ccccc1 | inactive: 4.8% |
| COc1ccc(CNC(=O)CSc2cccc3cccnc23)cc1 | inactive: 13.6% |
| CCOC(=O)c1oc2c(c1C)-c1nn(Cc3ccc(Cl)cc3)cc1CC2 | inactive: 21.2% |
| Cc1ccc2[nH]c(O)c(N=Nc3ccccc3C)c2c1 | inactive: 4.06% |
| Cc1ccnn1C(C)C(=O)O (configuration not stated) | inactive: 0.891% |
| O=C(NC(=S)Nc1ccccc1Br)c1ccco1 | inactive: -2.55% |
| Cc1ccc(N2CC(C(=O)Nc3cc(C)on3)CC2=O)c(C)c1 (configuration not stated) | inactive: 6.06% |
| CCc1cc2cc(C)cc(C)c2nc1SCC(=O)Nc1cc(C)on1 | inactive: -3.44% |
| COc1ccc(CNC(=O)C(C)OC(=O)C23CC4CC(CC(O)(C4)C2)C3)cc1 (configuration not stated) | inactive: 1.52% |
| O=C(CSc1nncc2ccccc12)Nc1cccc(O)c1 | inactive: -37.7% |

| Structure (SMILES) | growth rescue (activation) |
| --- | --- |
| CC(=O)Nc1nnc(CSCc2ccccc2F)s1 | inactive: -23% |
| CCCCCn1c(=O)[nH]c2cc(C(=O)N3CCN(c4ccccc4F)CC3)ccc2c1=O | inactive: -7.83% |
| CCOc1ccc(CN(C)C(C)C(=O)Nc2ccc([N+](=O)[O-])cc2Cl)cc1OC (configuration not stated) | inactive: 13.8% |
| CC(C)c1ccccc1NC(=S)NCc1ccncc1 | inactive: 7.78% |
| Cc1ccc(CSc2nnc(-c3cccc(S(=O)(=O)N4CCOCC4)c3)n2C2CCCC2)cc1 | inactive: 12.1% |
| O=C(COC(=O)Cc1ccc(Cl)cc1)Nc1cc(S(=O)(=O)N2CCOCC2)ccc1N1CCCC1 | inactive: 0.0332% |
| Cc1ccc(Cl)cc1N1CCN(C(=O)COc2ccc3c(c2)CCC3)CC1 | inactive: 19.3% |
| CCOC(=O)c1c(OCCO)noc1N | inactive: 3.72% |
| NS(=O)(=O)c1cccc(NC(=O)CCCNC(=O)c2ccc(Cl)cc2)c1 | inactive: -20.8% |
| CCCc1nc2nc(C)c(NS(=O)(=O)c3ccc([N+](=O)[O-])cc3)c(=O)n2[nH]1 | inactive: -8.92% |
| C=CCOc1ccc(CNn2nnnc2N)cc1 | inactive: 30.8% |
| O=C(O)COc1ccc(Br)cc1CP(=O)(c1ccccc1)c1ccccc1 | inactive: 23.1% |
| CN(CC(=O)Nc1ccc(F)c(F)c1F)c1ncnc2sccc12 | inactive: 16.7% |
| C/C(=N\N1C(=O)c2ccccc2NC1c1ccco1)c1ccccc1O (configuration not stated) | inactive: 12.5% |
| CC(C(=O)Nc1ccc(F)c(F)c1F)N1CCCCCC1 (configuration not stated) | inactive: 14.6% |
| O=C(c1cccc(NS(=O)(=O)c2ccc(F)c(F)c2)c1)N1CCN(Cc2ccccc2)CC1 | inactive: 13.8% |
| COc1ccc(COCC(O)CN2CCC(C(N)=O)CC2)cc1OC (configuration not stated) | inactive: 7.13% |
| COc1ccc(NC(=O)CSc2ccc3ccccc3c2)cc1S(=O)(=O)N1CCCCC1 | inactive: 9.27% |
| CCN(CC)CCNC(=O)c1ccc(NC(=O)c2ccc(F)cc2F)cc1 | inactive: 2.8% |
| Cn1c(Nc2ccc(Cl)cc2F)nc2cc(-c3ccccc3)sc2c1=O | inactive: 7.02% |
| CCN(CC)S(=O)(=O)c1ccc(C(=O)OCC(=O)Nc2sc3c(c2C#N)CCCCC3)cc1 | inactive: 13.7% |
| O=C(O)c1ccc(N2CC3CC(C2)c2cccc(=O)n2C3)c(NC(=S)Nc2ccc(Cl)cc2Cl)c1 (configuration not stated) | inactive: 1.34% |

| Structure (SMILES) | growth rescue (activation) |
| --- | --- |
| O=C(COC(=O)c1ccc(F)c(S(=O)(=O)N2CCOCC2)c1)NCc1ccccc1 | inactive: -3.19% |
| COc1ccc(/C=N/NC(=O)C(O)(c2ccccc2)c2ccccc2)cc1OC | inactive: -20.4% |
| Cc1ccc(C(=O)N/C(=C\c2ccc(F)cc2)C(=O)NCCCn2ccnc2)cc1 | inactive: -14% |
| CC(C)(C)c1ccc2c(c1)C(=O)c1ccccc1C2=O | inactive: 6.17% |
| CCOc1ccc(NC(=O)CN2CCN(CC(=O)Nc3ccc(OC)cc3OC)CC2)cc1 | inactive: 4.89% |
| COc1ccc(C(=O)Nc2nc3ccccc3s2)cc1OC | inactive: 28.9% |
| COc1ccc(Br)cc1S(=O)(=O)Nc1ncccc1C | inactive: -7.65% |
| Cc1cc(C(=O)Nc2ccc(CC(=O)O)cc2)c(C)o1 | inactive: -12.2% |
| O=C(CC1SC(=Nc2ccc(O)cc2)NC1=O)Nc1ccccc1 (configuration not stated) | inactive: -10% |
| CCOCC(O)CNC(=O)c1ccc(OC2CCN(C(=O)c3cccnc3)CC2)cc1 (configuration not stated) | inactive: 9.83% |
| COC(=O)C1=C(C)NC(=O)/C1=C\c1cc(C)n(-c2cccc(C)c2)c1C | inactive: 22.3% |
| CCn1c(=O)c(=O)[nH]c2cc(C(=O)N(C)Cc3ccc(OC)c(F)c3)ccc21 | inactive: -4.99% |
| CCc1nc(N[C@H](C(=O)O)C(C)C)c2oc3ccccc3c2n1 | inactive: -20.1% |
| Cc1cccc(N(C(=O)Cn2nnc(-c3ccccc3F)n2)C(C(=O)NC(C)(C)C)c2ccncc2)c1 (configuration not stated) | inactive: -0.711% |
| O=C(O)CCCn1cc(NC(=O)COc2ccccc2F)cn1 | inactive: 5.55% |
| C/C(=N\NC(=O)c1nnn(-c2nonc2N)c1CN(C)c1ccccc1)c1ccccc1O | inactive: 2.1% |
| O=[N+]([O-])c1ccc(S(=O)(=O)CC(CN2CCOCC2)N2CCOCC2)cc1 (configuration not stated) | inactive: 7.92% |
| CC(=O)Oc1ccc(/C=C(\NC(=O)c2ccco2)C(=O)Nc2ccc(C(C)=O)cc2)cc1 | inactive: -1.49% |
| O=C(Cc1cccs1)Nc1ccc(N2CCOCC2)cc1 | inactive: 23.2% |
